From the BET-seq Pho4 binding data (Le et al. 2018)
The other results are listed elsewhere or left out. The energies were worked out here from pooled read counts, against the library average; single values are noisy.

molecular target: T1, Pho4 (S. cerevisiae) (UniProt P07270); experiment: relative binding free energy (BET-seq); higher = weaker binding; conditions: reference: library average
T1 sequence: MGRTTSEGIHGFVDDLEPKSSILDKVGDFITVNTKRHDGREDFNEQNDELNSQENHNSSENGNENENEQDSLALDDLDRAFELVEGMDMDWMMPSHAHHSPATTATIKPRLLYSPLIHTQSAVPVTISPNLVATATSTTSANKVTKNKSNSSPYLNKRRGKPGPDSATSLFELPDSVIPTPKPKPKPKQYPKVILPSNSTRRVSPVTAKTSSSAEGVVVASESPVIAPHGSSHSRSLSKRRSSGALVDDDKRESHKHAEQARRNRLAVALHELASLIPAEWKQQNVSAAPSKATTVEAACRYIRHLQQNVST

Sequence	relative binding free energy
CGAGGCACGTGATTGG	0.13 kcal/mol
GACGTCACGTGTGTGG	0.1 kcal/mol
CCGGACACGTGGGGGG	-0.13 kcal/mol
CGAGTCACGTGCGGTT	0.2 kcal/mol
CTAGTCACGTGGTGGG	-0.02 kcal/mol
TGTGTCACGTGAGACT	0.31 kcal/mol
AGTGGCACGTGTGCCT	-0.1 kcal/mol
ACAGGCACGTGAAGTT	0.24 kcal/mol
TACGTCACGTGAAGTT	0.4 kcal/mol
GCGGACACGTGGTGCG	-0.05 kcal/mol
GGAAGCACGTGGATGT	-0.04 kcal/mol
ATGGGCACGTGCAGCG	-0.04 kcal/mol
ACAAGCACGTGAGGGG	0.19 kcal/mol
GGGGGCACGTGGATAG	-0.06 kcal/mol
TCGTACACGTGGCGGT	0.06 kcal/mol
GGTGACACGTGCTAGG	0.02 kcal/mol
CGTTGCACGTGTTCGG	-0.04 kcal/mol
TGGCTCACGTGGGTAT	0.07 kcal/mol
TTTAACACGTGCTGGT	-0.06 kcal/mol
TAAGTCACGTGTCGGC	0.19 kcal/mol
GGGATCACGTGCGGGT	0.13 kcal/mol
GTGTCCACGTGGAAGG	0.23 kcal/mol
TCTGTCACGTGGGGGG	-0.06 kcal/mol
GGGGACACGTGGGCCG	-0.02 kcal/mol
TATAACACGTGGGGGG	-0.16 kcal/mol
TAGGGCACGTGACATG	-0.05 kcal/mol

Sequence	relative binding free energy
GAATGCACGTGGAGTA	0.09 kcal/mol
TTGACCACGTGTTGAT	0.11 kcal/mol
GATGTCACGTGAGTGC	0.26 kcal/mol
TTGGGCACGTGTAGGT	0 kcal/mol
TATTTCACGTGGGCCT	0.15 kcal/mol
TGGAGCACGTGGGCCT	-0.29 kcal/mol
TTCTTCACGTGTTATA	0.26 kcal/mol
AGCTTCACGTGTGTCG	0.28 kcal/mol
CTCTGCACGTGGGTTT	-0.2 kcal/mol
CATGTCACGTGATAAG	0.38 kcal/mol
GAGCTCACGTGAGGGC	0.41 kcal/mol
GTCGGCACGTGTTGGG	0.02 kcal/mol
GATGACACGTGTTAGG	0.08 kcal/mol
GTGTACACGTGGGCCT	-0.13 kcal/mol
TGCATCACGTGTGAGT	0.23 kcal/mol
CAATTCACGTGTTTGG	0.18 kcal/mol
TAAGACACGTGGAGTG	0.03 kcal/mol
GTAGTCACGTGGGCAT	0.04 kcal/mol
AGGCGCACGTGTATGA	0 kcal/mol
GGGTGCACGTGCCTGG	-0.11 kcal/mol
TAGTACACGTGATTGA	0.13 kcal/mol
GTTCACACGTGGAGGG	0.25 kcal/mol
TAAGTCACGTGGGTGA	-0.08 kcal/mol
GGGTTCACGTGGGACT	0.24 kcal/mol
TAGGGCACGTGGGGTA	-0.26 kcal/mol
ATTCTCACGTGTATTA	0.07 kcal/mol

Sequence	relative binding free energy
GGAATCACGTGTTTTG	0.21 kcal/mol
TATCTCACGTGTTTAG	0.19 kcal/mol
ATTGTCACGTGTGTAG	0.12 kcal/mol
CTGAACACGTGGTGTG	-0.12 kcal/mol
TTTGGCACGTGTGCTG	-0.08 kcal/mol
GGTTTCACGTGTAGGA	0.25 kcal/mol
TCGGCCACGTGGTTTT	-0.01 kcal/mol
GCTATCACGTGTGATT	0.38 kcal/mol
TGAGTCACGTGGCATG	-0.05 kcal/mol
GTGTTCACGTGCTGTT	0.26 kcal/mol
GTGGTCACGTGGGGAG	0.06 kcal/mol
AGTGGCACGTGAATCT	0.19 kcal/mol
AGGATCACGTGCTAGT	0.01 kcal/mol
ATGGACACGTGTGGGA	0.11 kcal/mol
TAGTGCACGTGTTGTC	-0.08 kcal/mol
GACGTCACGTGTTTAG	0.32 kcal/mol
GTCGGCACGTGGGTGT	-0.15 kcal/mol
TTAGTCACGTGATTTA	0.15 kcal/mol
GTAAGCACGTGTAATA	0.19 kcal/mol
TATGACACGTGCTGTT	0.05 kcal/mol
TGGGGCACGTGCTGAT	-0.09 kcal/mol
TGGAACACGTGTTTCG	0.21 kcal/mol
TAGCTCACGTGTGTAG	0.24 kcal/mol
AATGGCACGTGTTAAT	-0.03 kcal/mol
CGTGTCACGTGTTATT	0.22 kcal/mol
TATATCACGTGGTTTA	-0.01 kcal/mol

Sequence	relative binding free energy
TTTGTCACGTGCTTCG	0.11 kcal/mol
CGTTTCACGTGGGGTC	0.2 kcal/mol
TTTGACACGTGTCGGT	-0.05 kcal/mol
TAAGCCACGTGGTTTA	-0.1 kcal/mol
TCGTACACGTGTGCGT	0.05 kcal/mol
ATGTGCACGTGATAAT	0.05 kcal/mol
GTGGACACGTGTTCAT	0.08 kcal/mol
ATTGTCACGTGTATGT	0.16 kcal/mol
TAATACACGTGGGGGA	0.08 kcal/mol
AAAGGCACGTGGTACG	-0.19 kcal/mol
GTTATCACGTGAACGG	0.28 kcal/mol
GTTGGCACGTGCATGC	-0.18 kcal/mol
AGTAGCACGTGCTTAT	-0.03 kcal/mol
TAAATCACGTGTAGGG	0.06 kcal/mol
AGTTACACGTGAGAGA	0.34 kcal/mol
TTGGACACGTGATTTA	0.11 kcal/mol
AGTGGCACGTGGTTTA	-0.16 kcal/mol
AGGGGCACGTGCGAGA	-0.22 kcal/mol
TTTAGCACGTGGATTG	0.01 kcal/mol
GATTGCACGTGGATGA	0.13 kcal/mol
AAATGCACGTGCGGGT	-0.11 kcal/mol
AGTCACACGTGGATGG	0.13 kcal/mol
AGTGTCACGTGAGTCG	0.22 kcal/mol
TGGACCACGTGGATTG	0.1 kcal/mol
TGTTACACGTGGTGCA	-0.01 kcal/mol
AGTCACACGTGTTAGT	0.03 kcal/mol

Sequence	relative binding free energy
GTGGGCACGTGGCACG	-0.37 kcal/mol
GTGCTCACGTGGTTCG	0.25 kcal/mol
GAGCGCACGTGATTGG	0.11 kcal/mol
AATATCACGTGGAATG	0.21 kcal/mol
ATCGCCACGTGGTGTG	-0.13 kcal/mol
AAGCGCACGTGTGGGT	-0.08 kcal/mol
AGAGTCACGTGAGTGA	0.23 kcal/mol
TTAGGCACGTGCGTGG	-0.25 kcal/mol
TGTAACACGTGGGTAC	-0.2 kcal/mol
TTAAACACGTGCAGGT	0.12 kcal/mol
GGAGGCACGTGTGGTA	-0.04 kcal/mol
TTTGGCACGTGTTTGA	-0.02 kcal/mol
TGTGTCACGTGAAGCG	0.3 kcal/mol
GGTGCCACGTGGGGGG	-0.18 kcal/mol
AGTATCACGTGTACGT	0.05 kcal/mol
TTGAACACGTGAGCGG	0.05 kcal/mol
CGGGCCACGTGATGTG	-0.04 kcal/mol
GCTTGCACGTGTGATA	0.1 kcal/mol
TTTAGCACGTGCGAGG	-0.09 kcal/mol
CAGGTCACGTGGTTTT	0.16 kcal/mol
ATTATCACGTGGACGT	0.17 kcal/mol
AATTACACGTGGGGGG	-0.04 kcal/mol
TGGCGCACGTGTCGTG	-0.04 kcal/mol
GTTTGCACGTGCGCGT	-0.06 kcal/mol
GTTTTCACGTGATATT	0.35 kcal/mol
GAGCCCACGTGGTGGG	-0.1 kcal/mol

Sequence	relative binding free energy
TTTTGCACGTGTCTCG	0.07 kcal/mol
AAAGTCACGTGTCGTT	0.14 kcal/mol
AGGATCACGTGTACGG	0.14 kcal/mol
ATGTGCACGTGGTCGG	-0.01 kcal/mol
CTTGGCACGTGTCGTT	-0.05 kcal/mol
GTATTCACGTGCAATG	0.28 kcal/mol
TTTTGCACGTGTCAAG	-0.02 kcal/mol
ATGGTCACGTGTCGGG	0.11 kcal/mol
GTTTGCACGTGGGCCT	-0.25 kcal/mol
TGCAACACGTGGGTTA	-0.09 kcal/mol
GGTTCCACGTGGTTTA	0.08 kcal/mol
GTATTCACGTGTGGTC	0.31 kcal/mol
ACGGTCACGTGGGGTA	-0.06 kcal/mol
ATTTGCACGTGCGATG	-0.07 kcal/mol
AGTGACACGTGTGCTT	-0.05 kcal/mol
ATTGTCACGTGTCAGG	-0.02 kcal/mol
GGGGGCACGTGTGTGT	-0.03 kcal/mol
GAGAACACGTGAGTTT	0.39 kcal/mol
TCGGACACGTGGGGTT	-0.04 kcal/mol
TAGAGCACGTGGTTCG	-0.04 kcal/mol
TTGAACACGTGTTGAG	0.03 kcal/mol
GTGAGCACGTGGGTTC	-0.25 kcal/mol
AAGGTCACGTGATTAT	0.08 kcal/mol
GCGATCACGTGGGGTG	0.03 kcal/mol
ACTGGCACGTGGCATG	-0.16 kcal/mol
TAGGGCACGTGCTTAG	-0.2 kcal/mol

Sequence	relative binding free energy
GGGTGCACGTGTGAGG	0.2 kcal/mol
GATGGCACGTGAGTTG	0.19 kcal/mol
CGGTCCACGTGTGGGT	-0.03 kcal/mol
CGGTTCACGTGTCGTT	0.29 kcal/mol
CGTTTCACGTGTGCTG	0.27 kcal/mol
ATGTGCACGTGATGCG	0.05 kcal/mol
ATGGTCACGTGAAGGA	0.23 kcal/mol
CGCGGCACGTGGTAGT	-0.21 kcal/mol
ATGTCCACGTGTGATG	0.12 kcal/mol
CCTAGCACGTGAGGGT	0.11 kcal/mol
TTGTTCACGTGATTGT	0.36 kcal/mol
AAGGGCACGTGTCGGA	-0.06 kcal/mol
TAACGCACGTGTGGTG	-0.1 kcal/mol
CTTTACACGTGGAGGG	-0.06 kcal/mol
TGGTACACGTGAAGGA	0.26 kcal/mol
TGATCCACGTGGTAGT	-0.1 kcal/mol
TTCTACACGTGGTGAA	0.14 kcal/mol
TGTACCACGTGATTGG	0.08 kcal/mol
TGGGTCACGTGTGCCG	0.07 kcal/mol
TGGGGCACGTGCAGTC	-0.14 kcal/mol
ACGGTCACGTGAGTGC	0.31 kcal/mol
AATAACACGTGTAGTT	0.02 kcal/mol
TCTGTCACGTGAGGGA	0.24 kcal/mol
TTGCGCACGTGCGGGA	-0.26 kcal/mol
TTATTCACGTGGGGTG	0.13 kcal/mol
GGTTGCACGTGAACTG	0.31 kcal/mol

Sequence	relative binding free energy
CATGGCACGTGGTGTA	-0.18 kcal/mol
AGAGTCACGTGTAGCG	0.25 kcal/mol
TGTGTCACGTGAAAGT	0.16 kcal/mol
TGTTACACGTGGAGCG	0.07 kcal/mol
ATGATCACGTGGATTT	0.15 kcal/mol
TTTAGCACGTGGTTAT	-0.14 kcal/mol
GTCGTCACGTGTGGAA	0.07 kcal/mol
GAGGCCACGTGTGGGG	0.09 kcal/mol
GTGGACACGTGTGGTT	0.2 kcal/mol
TGTGGCACGTGTGTAA	-0.07 kcal/mol
TTAAGCACGTGGGTCG	-0.26 kcal/mol
GAGCTCACGTGAAGTT	0.62 kcal/mol
GTATTCACGTGTCGGT	0.24 kcal/mol
TTGGTCACGTGTGAAC	0.21 kcal/mol
TTTGTCACGTGGTTAC	0.04 kcal/mol
AGTGGCACGTGTATTA	-0.12 kcal/mol
TCGGGCACGTGAATGG	0.14 kcal/mol
CGGTACACGTGAGGTT	0.25 kcal/mol
GTATTCACGTGGGAAA	0.25 kcal/mol
TTAATCACGTGTCTTA	0.08 kcal/mol
AGTAACACGTGGAGTA	0.12 kcal/mol
GTTTGCACGTGTTGAA	0.18 kcal/mol
TCTTACACGTGGTGCT	0.1 kcal/mol
ATATGCACGTGTGGCG	0.01 kcal/mol
TAGAACACGTGTTTAG	0.03 kcal/mol
TTGTTCACGTGTTGTA	0.22 kcal/mol

Sequence	relative binding free energy
TAAGACACGTGGGAGT	-0.02 kcal/mol
CTCGTCACGTGGGGAT	0.02 kcal/mol
AGAAACACGTGTTTGT	-0.05 kcal/mol
TTCGCCACGTGTTGTG	-0.02 kcal/mol
AGTCGCACGTGAGTTT	0.25 kcal/mol
TGGGACACGTGTTCGA	0 kcal/mol
CTTTGCACGTGGCGGG	-0.09 kcal/mol
ATGTACACGTGGGTCG	-0.13 kcal/mol
TACTTCACGTGGGTCG	0.27 kcal/mol
AGAGGCACGTGGTGCC	-0.02 kcal/mol
TAATTCACGTGTAGCA	0.31 kcal/mol
TTAGTCACGTGGCCGG	-0.08 kcal/mol
GCGGGCACGTGAGAGC	0.28 kcal/mol
TGTGGCACGTGGCATG	-0.14 kcal/mol
TAGGACACGTGTTGTG	0.02 kcal/mol
GTCCGCACGTGTGGGT	0.02 kcal/mol
AGTGACACGTGTAGGA	0.03 kcal/mol
GAGGTCACGTGTGCTA	0.18 kcal/mol
ATATCCACGTGGGTTA	-0.08 kcal/mol
TTTCTCACGTGAGTTC	0.44 kcal/mol
GGATGCACGTGGAAGG	-0.07 kcal/mol
TGTGACACGTGGTGTG	0 kcal/mol
